Test results from PubChem BioAssay AID504339 (National Center for Advancing Translational Sciences (NCATS), 2011).
Where “and” joins values, the source holds several entries; their conditions need not be identical. Equal values may be shown once. In all, about 390,000 compounds went through this assay and about 17,000 (4.4%) were called active. This list was built around the results that the source calls inconclusive (neither active nor inactive); the mix of calls is not that of the screen. Calls come from the whole dose curve; as a rule, active = well fitted inhibition curve with a large enough effect; inconclusive = small, poorly fitted or top-dose-only effect; inactive = no such curve, though single readings can be large or run the other way. Potencies beside an inconclusive call are fits to weak or partial responses and may not hold up.

What follows are molecules tested against Lysine-specific demethylase 4A (Homo sapiens) (UniProt O75164) (assay: qHTS Assay for Inhibitors of JMJD2A-Tudor Domain). Conditions: AlphaScreen JMJD2A-Tudor / H3K4me3 peptide binding; series mostly up to 114 µM.
Note: nearly all actives have a fitted effect of over 50% in size.
Potency is the fitted concentration of half-maximal effect; tags give direction and shape of the fitted curve.

Chain of UniProt O75164 (O75164 whole entry, looked up, the tested form may be a part): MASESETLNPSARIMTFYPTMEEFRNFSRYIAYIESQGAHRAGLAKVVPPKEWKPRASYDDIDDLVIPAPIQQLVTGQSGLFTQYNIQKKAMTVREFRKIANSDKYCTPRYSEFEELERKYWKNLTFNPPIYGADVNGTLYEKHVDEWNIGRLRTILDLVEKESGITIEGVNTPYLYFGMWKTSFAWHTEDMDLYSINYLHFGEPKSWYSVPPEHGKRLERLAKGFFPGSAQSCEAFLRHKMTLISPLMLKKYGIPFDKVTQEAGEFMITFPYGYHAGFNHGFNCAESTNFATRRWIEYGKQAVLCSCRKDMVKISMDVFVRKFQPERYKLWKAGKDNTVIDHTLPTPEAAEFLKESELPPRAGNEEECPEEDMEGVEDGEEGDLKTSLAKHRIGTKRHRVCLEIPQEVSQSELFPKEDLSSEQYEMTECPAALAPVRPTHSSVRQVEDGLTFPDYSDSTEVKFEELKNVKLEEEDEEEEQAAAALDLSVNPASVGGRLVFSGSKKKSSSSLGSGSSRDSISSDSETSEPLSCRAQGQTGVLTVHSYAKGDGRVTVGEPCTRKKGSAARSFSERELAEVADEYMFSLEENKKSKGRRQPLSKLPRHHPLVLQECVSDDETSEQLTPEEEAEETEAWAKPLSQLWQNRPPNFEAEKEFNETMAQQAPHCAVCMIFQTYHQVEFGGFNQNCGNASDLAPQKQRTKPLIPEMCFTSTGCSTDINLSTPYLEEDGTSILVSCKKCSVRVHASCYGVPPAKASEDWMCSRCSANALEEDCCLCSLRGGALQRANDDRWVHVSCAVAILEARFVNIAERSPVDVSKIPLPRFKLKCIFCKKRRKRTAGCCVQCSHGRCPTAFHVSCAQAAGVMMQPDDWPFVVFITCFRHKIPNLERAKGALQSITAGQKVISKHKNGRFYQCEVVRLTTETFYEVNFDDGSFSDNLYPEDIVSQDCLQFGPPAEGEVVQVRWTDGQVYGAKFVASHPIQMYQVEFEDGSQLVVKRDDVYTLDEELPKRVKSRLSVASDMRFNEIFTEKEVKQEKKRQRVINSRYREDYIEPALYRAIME

| SMILES | Potency |
| --- | --- |
| C/C(CCc1ccc2c(c1)OCO2)=N\N=C(/N)SC1CC(=O)N(c2ccc(Cl)cc2)C1=O (configuration not stated) | inconclusive: 56.2 µM [inhibitor, partial curve] |
| Cc1ccc(-n2c(CCC(=O)O)ccc2-c2cccs2)cc1C | inconclusive: 79.4 µM [inhibitor, partial curve] and inconclusive: 50.1 µM [inhibitor, partial curve] |
| Cc1cc(S(=O)(=O)N2c3ccc(F)cc3CCC2C)ccc1-n1cnnn1 (configuration not stated) | inconclusive: 0.794 µM [inhibitor, full curve] |
| Cc1c(C(=O)N(Cc2ccccc2)C(C)C)oc2ccc(S(=O)(=O)N3CCOCC3)cc12 | inconclusive: 20 µM [inhibitor, full curve] |
| Cc1ccc(S(=O)(=O)NCC(c2ccc(N(C)C)cc2)N2CCCC2)cc1 (configuration not stated) | inconclusive: 63.1 µM [inhibitor, partial curve] |
| CCCc1nnc(NC(=O)c2c(O)c3cccc4c3n(c2=O)CCC4)s1 | inconclusive: 44.7 µM [inhibitor, partial curve] |
| Cc1ccccc1/C=C1\SC(=S)N(/N=C/c2cc([N+](=O)[O-])ccc2O)C1=O | inconclusive: 14.1 µM [inhibitor, full curve] |
| Cc1ccc(C)c(C(=O)COC(=O)c2cc([N+](=O)[O-])ccc2N2CCOCC2)c1 | inconclusive: 14.1 µM [inhibitor, full curve] |
| Cc1ccc(-c2csc(NC(=O)c3ccccc3F)c2C(=O)O)cc1 | inactive |
| O=C(O)CN1C(=O)N/C(=C\c2cccn2-c2ccc(P(=O)(O)O)cc2)C1=O | inconclusive: 89.1 µM [inhibitor, partial curve] |
| CCOCCCNC(=O)CSc1ccccc1 | inactive |
| COc1ccc(-c2cc3ccccc3[nH]2)cc1 | active: 7.08 µM |
| COc1cccc(C(C#N)NCCCNC(C#N)c2cccc(OC)c2OC)c1OC (configuration not stated) | inactive |
| O=C(O)CNS(=O)(=O)c1ccc2[nH]c(=O)c(=O)[nH]c2c1 | inactive |
| CCN(CC)S(=O)(=O)c1cccc(-c2nnc(SCC(=O)NCCC3=CCCCC3)n2N)c1 | inactive |
| CCc1nnc(NS(=O)(=O)c2ccc(Nc3ccc([N+](=O)[O-])c4nonc34)cc2)s1 | inconclusive: 56.2 µM [inhibitor, partial curve] |
| O=C(NCCN1C(=O)S/C(=C\c2cccnc2)C1=O)c1cccc(OC(F)F)c1 | inconclusive: 44.7 µM [inhibitor, single point] |
| O=C(CS(=O)(=O)c1c[nH]c2ccccc12)N1CCCCCC1 | inactive |
| COc1ccc(OC)c(S(=O)(=O)Nc2cccc3c(O)cccc23)c1 | inactive |
| O=C(CN1CCOCC1)Nc1nc2cc([N+](=O)[O-])ccc2s1 | inconclusive: 20 µM [inhibitor, partial curve] |
| COc1ccc(C(=O)N2CCN(S(=O)(=O)c3ccccc3)CC2)c(OC)c1 | inactive |
| O=C(Cc1ccccc1)Nc1ccccc1N1CCOCC1 | inactive |
| CCn1c(-c2csc(-c3ccc(Cl)cc3)n2)n[nH]c1=S | inactive |
| Cc1ccc(S(=O)(=O)Nc2ccc(-c3cn4ccc(C)cc4n3)cc2)cc1 | inconclusive: 14.1 µM [inhibitor, partial curve, poor fit] |

| SMILES | Potency |
| --- | --- |
| CCOc1ccc(NS(=O)(=O)c2ccc3[nH]cc(C(=O)NCc4ccco4)c(=O)c3c2)cc1 | inactive |
| CCOC(=O)c1nn(-c2ccc(F)cc2)c(=O)cc1OCC(=O)Nc1ccc(OCC)cc1 | inconclusive: 2.82 µM [inhibitor, full curve, poor fit] |
| N#C/C(=C\c1c[nH]c2ccccc12)c1nnc2n1CCCCC2 | inconclusive: 39.8 µM [inhibitor, single point] |
| COc1cc(CN(C)Cc2cccc3ccccc23)cc([N+](=O)[O-])c1O | inconclusive: 39.8 µM [inhibitor, partial curve] |
| CNS(=O)(=O)c1ccc(CCC(=O)N2CCOCC2)cc1 | inconclusive: 22.4 µM [inhibitor, full curve, poor fit] |
| CC12CCC(C(=O)N(NC(=O)c3cc(Cl)ccc3O)C1=O)C2(C)C (configuration not stated) | inconclusive: 56.2 µM [inhibitor, partial curve] |
| CC(C)C(=O)NC(c1ccco1)c1ccc2cccnc2c1O (configuration not stated) | active: 79.4 µM |
| Cc1ccc(S(=O)(=O)N2CCN(CC(=O)NC(=O)NCc3ccco3)CC2)cc1C | inconclusive: 63.1 µM [inhibitor, partial curve] |
| COc1ccc(CN(CCC(c2ccc3c(c2)OCO3)c2ccccc2OC)C(C)=O)cc1 (configuration not stated) | inconclusive: 25.1 µM [inhibitor, full curve] |
| COc1cccc(CNC(=O)c2ccccc2-c2ccccc2)c1 | inactive |
| COc1ccc(O)c(C(=O)c2cnn(-c3ccc(Cl)cc3)c2)c1 | inconclusive: 25.1 µM [inhibitor, full curve] |
| Cn1c(-c2ccc([N+](=O)[O-])cc2)nc2ccccc21 | inactive |
| Oc1c(Br)cc(/C=N/NC(=S)NCc2ccco2)cc1Br | inconclusive: 3.16 µM [inhibitor, single point] |
| O=C(NCCc1ccccc1)c1ccc2c(=O)[nH]c3c(C(=O)NCC4CCCO4)sc(=S)n3c2c1 (configuration not stated) | active: 44.7 µM |
| O=C(Nc1ccc(Cl)cc1)c1ccc(CN2CCc3ccccc3C2)cc1 | inactive |
| O=[N+]([O-])c1ccccc1N/N=C/c1ccccc1 | inactive |
| CN(C(=O)c1ccccc1F)C(c1ccccc1)c1ccccc1 | inactive |
| COc1ccccc1C(=O)NCCC(=O)Nc1nc2ccccc2[nH]1 | inconclusive: 25.1 µM [inhibitor, partial curve] |
| CCN(CC)c1ccc(CNc2nc3ccccc3n2CCN2CCCCC2)cc1 | active: 39.8 µM |
| COc1cccc2c1OCC(CN1CCN(CCC(C)C)C(CCO)C1)=C2 (configuration not stated) | inactive |
| COc1ccc(C[C@](C)(N)C(=O)O)cc1OC | inactive |
| CCNC(=O)/C(C#N)=C/c1c(N2CCN(c3ccccc3)CC2)nc2c(C)cccn2c1=O | inconclusive: 10 µM [inhibitor, partial curve] |
| C[C@@H]1O[C@@H](Oc2c(-c3cc(O)c(O)c(O)c3)oc3cc(O)cc(O)c3c2=O)[C@H](O)[C@H](O)[C@H]1O | active: 31.6 µM |
